Measurements as given in PubChem BioAssay AID1963576 (National Center for Advancing Translational Sciences (NCATS), 2024).
Among all 46,000 compounds or so, about 60 (0.1%) were called active. Another 3% or so got no clear call; they are omitted. The call rests on the fitted dose curve; in most records, active means well fitted inhibition curve with a large enough effect; inconclusive means small, poorly fitted or top-dose-only effect; inactive means no such curve, though single readings can be large or run the other way. The list shows a part of the results.

Experiment: Primary qHTS assay for Inhibitors of ovarian cancer metastasis using an organotypic tumor microenvironment (TME) model. Further: nearly all actives have a fitted effect of over 65% in size.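 On activity change, negative = inhibition: plate controls were DMSO wells for no effect and tomatine positive control wells for full effect.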
Settings: SKOV3ip1-GFP adhesion/invasion on 3D omental model, fluorescence; series mostly up to 45.8 µM; activity change, negative = inhibition: at the top concentration
Procedure, shortened: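 A 3D layer of primary human omental fibroblasts, mesothelial cells, fibronectin and collagen I, grown 48 hr, received SKOV3ip1-GFP cells in serum-free medium plus compounds at 0.36-46 umol/L. After 2 hr RT and 16 hr 37 C, fixed adherent GFP cells were counted; normalized to DMSO and tomatine.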

Compound | activity change, negative = inhibition | outcome
Cc1noc2nc(C(=O)O)nc(N3CCCCC3)c12 | inactive: -4.81% | 
COc1ccc(OC)c(-c2noc(CSc3nnc(Cc4ccccc4)n3-c3cccc(C)c3)n2)c1 | inactive: -9.29% | 
CC1CCC(NC(=O)Cn2ncc3c4ccccc4n(Cc4ccc(Cl)cc4)c3c2=O)CC1 (configuration not stated) | inactive: -4.66% | 
CC(=O)c1ccc(NC(=O)CCn2nc(C)c(S(=O)(=O)N3CCC(C)CC3)c2C)cc1 |  | inactive
CC(C)CCNC(=O)CSCc1cnn(-c2ccccc2)c1-n1cccc1 | inactive: -4.1% | 
CCc1nc(SCC(=O)Nc2ccc(NC(C)=O)cc2)n[nH]1 | inactive: -5.02% | 
O=C(Nc1ccc(F)cc1F)c1noc2c1CCc1ccccc1-2 |  | inactive
Cc1ccc(-n2c(=O)c3ccc(C(=O)NCc4ccco4)cc3n(Cc3cccc(Cl)c3)c2=O)cc1 | inactive: -4.79% | 
CC(C)c1cnc2c(c1SCc1cccc(C(F)(F)F)c1)c(=O)n(C)c(=O)n2C |  | inactive
O=C(Nc1ccc(Cl)c(Cl)c1)N1CCC(c2ccccc2)C1 (configuration not stated) | inactive: -12.4% | 
COc1ccc(NC(=O)Cn2c(=O)n(Cc3nc(-c4ccccc4)no3)c(=O)c3cc4c(cc32)OCO4)cc1Cl | inactive: -4.44% | 
CCc1ccc(NC(=O)CC2C(=O)N(c3ccccc3)C(=O)N2C(C)C)cc1 (configuration not stated) | inactive: 3.01% | 
COc1ccc(Br)cc1CNC(=O)CN1CCSc2ccccc21 |  | inactive
COC(=O)c1ccccc1NC(=O)Cc1noc2ccc(C)cc12 | inactive: -1.49% | 
Cc1ccc2oc(-c3ccc(Cl)c(NC(=O)c4ccc(-c5ccccc5[N+](=O)[O-])o4)c3)nc2c1 | inactive: 56.2% | 
CCc1ccccc1NC(=O)Cn1nnc(C(=O)Nc2ccc(C)c(F)c2)c1N | inactive: -5.92% | 
Cc1cccc(NC(=O)Cn2cc(C(=O)c3ccco3)c3ccccc32)c1C | inactive: -6.49% | 
COc1ccc(CN2C(=O)C(NC(=O)c3ccccc3C)(C(F)(F)F)N=C2c2ccccc2)cc1 (configuration not stated) |  | inactive
Cc1nn(CC(=O)NCc2ccc(OC(C)C)cc2)c(=O)c2c(C)n(-c3ccc(Cl)cc3)nc12 | inactive: -13.2% | 
COc1ccc(CNc2ncnc3c2nnn3C)cc1 | inactive: -8.01% | 
COc1ccc2c(c1)-c1nc(NC(=O)c3ccc(Cl)cc3)sc1CC2 | inactive: -31.2% | 
COc1ccccc1CCNc1ncnc2c1nnn2C |  | inactive
CCCCCOc1ccc(C2c3c(oc4ccccc4c3=O)C(=O)N2c2nc(C)c(C)s2)cc1OCC (configuration not stated) | inactive: 1.39% | 
CSc1ccc(CCNC(=O)Cn2ncc3c(=O)oc4ccc(C)cc4c32)cc1 | inactive: -3.56% | 
O=C(CSc1nc2c([nH]c3ccccc32)c(=O)n1-c1ccccc1)N1CCCC1 | inactive: -11.4% | 
O=C(Nc1ccc(O)cc1)c1cccc(S(=O)(=O)N2CCOCC2)c1 | inactive: -5.72% | 
COc1ccc(S(=O)(=O)c2c(SC)nn(Cc3ccccc3C)c2NC(C)=O)cc1 | inactive: 6.37% | 
